± gives the standard deviation of the averaged measurements. The full ranking holds about 33,000 sequences; the median of “E-score (dimensionless, -0.5 to 0.5)” is about -0.046, and the highest 2% start at about 0.36. The list shows a part of the results.

The experiment relates to T1, SpTbr T-box DNA-binding domain (GST fusion).
T1 sequence: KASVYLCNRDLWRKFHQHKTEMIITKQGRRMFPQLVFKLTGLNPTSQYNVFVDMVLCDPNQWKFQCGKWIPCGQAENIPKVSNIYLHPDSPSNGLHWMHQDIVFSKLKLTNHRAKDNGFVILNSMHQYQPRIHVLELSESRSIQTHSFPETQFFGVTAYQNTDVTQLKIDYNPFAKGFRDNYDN
Briefly: PBM E-score of 8-mer (E-score (dimensionless, -0.5 to 0.5)); Tbr is Tbrain of the sea star Patiria miniata (Pm) or the sea urchin Strongylocentrotus purpuratus (Sp); higher = stronger binding preference; most listed sequences are background and not binding sites. The settings on record: the construct has about 5 more residues each side. The method, boiled down: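 Primer extension turned Universal Agilent oligonucleotide arrays double-stranded. They were incubated with 200 nM protein in PBS (pH 7.5); the protein was a GST-fused Tbr T-box DNA-binding domain expressed in BL21 E. coli at 20 °C and purified on glutathione. Every ungapped 8-mer was scored from the scanned, quantified probe intensities, and the Universal PBM Analysis Suite gave each an enrichment E-score averaged over duplicate arrays.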
Regarding AGTGATTA, the “PBM E-score of 8-mer” value was 0.132 ± 0.017. For AATCTGAC, the “PBM E-score of 8-mer” value is -0.0521 ± 0.077. On to CCCTCCGA, for which the “PBM E-score of 8-mer” value was -0.0709 ± 0.059. Regarding GGCTCTCA, the “PBM E-score of 8-mer” value was 0.0783 ± 0.047. In the case of CATACTTA, the “PBM E-score of 8-mer” value is -0.199 ± 0.0057.

As for CGACTATC, the “PBM E-score of 8-mer” value is -0.00152 ± 0.0027. As for ATAGAAAT, the “PBM E-score of 8-mer” value was -0.0474 ± 0.0075. For ATCCCCAA, the “PBM E-score of 8-mer” value was -0.0557 ± 0.04. Next, ACTTACGA: 0.142 ± 0.032; AGGGTGGA: 0.0535 ± 0.0032. Turning to ATAGTATG, the “PBM E-score of 8-mer” value is -0.0917 ± 0.041.

For ATAACCTC, the “PBM E-score of 8-mer” value is -0.0208 ± 0.0088. On to CAGTGTAG, for which the “PBM E-score of 8-mer” value was -0.0716 ± 0.012. As for CACCCGCC, the “PBM E-score of 8-mer” value stood at 0.218 ± 0.069. For GGAACTAC, the “PBM E-score of 8-mer” value was 0.0389 ± 0.024. Turning to CGGGAAGC, the “PBM E-score of 8-mer” value is -0.0919 ± 0.059. Turning to GAAAAACA, the “PBM E-score of 8-mer” value is -0.0565 ± 0.072. On to CCCTGGCA, for which the “PBM E-score of 8-mer” value was -0.00203 ± 0.057. On to TAGGAGGA, for which the “PBM E-score of 8-mer” value is -0.231 ± 0.054.

For ACCTCAAA, the “PBM E-score of 8-mer” value turned out to be 0.0838 ± 0.059. For the sequence CTTACGGC, the “PBM E-score of 8-mer” value was -0.14 ± 0.017. Next, AAACCGGA: -0.114 ± 0.078; AACCTTTA: 0.000765 ± 0.041; CCGTCCTC: -0.238 ± 0.029. Next, GCTTTGCA: 0.0233 ± 0.069. CTGGCGCA: the “PBM E-score of 8-mer” value is 0.0297 ± 0.041. In the case of AACACCCC, the “PBM E-score of 8-mer” value is 0.39126 ± 9.9e-05.

Consider CCAAGTAA, for which the “PBM E-score of 8-mer” value was -0.21 ± 0.095. Take GTGCCCAC: the “PBM E-score of 8-mer” value is -0.0496 ± 0.09.

In the case of CTTTTAGA, the “PBM E-score of 8-mer” value is -0.198 ± 0.021. In the case of GACGAGTA, the “PBM E-score of 8-mer” value is -0.14 ± 0.054. Consider AGAGTTAT, for which the “PBM E-score of 8-mer” value was 0.0165 ± 0.045. Consider GACACAGC, for which the “PBM E-score of 8-mer” value is 0.102 ± 0.062. Consider CCCCCGCC, for which the “PBM E-score of 8-mer” value turned out to be 0.0682 ± 0.0058. Turning to CGATGTCA, the “PBM E-score of 8-mer” value was 0.1339 ± 0.00055. Next, AACGCTAG: 0.0849 ± 0.072; CCATCATC: -0.119 ± 0.067; ACGTCTCT: -0.0624 ± 0.06.

Consider AGAACGAG, for which the “PBM E-score of 8-mer” value was -0.00895 ± 0.029.

For the sequence TCCAGGCA, the “PBM E-score of 8-mer” value is -0.379 ± 0.028. Next, GCTCACAA: 0.174 ± 0.018. For ATATATAT, the “PBM E-score of 8-mer” value is -0.045 ± 0.088. Turning to ATATCAAC, the “PBM E-score of 8-mer” value was found to be 0.0891 ± 0.0058. CGTCCAAC: the “PBM E-score of 8-mer” value was -0.116 ± 0.024. Regarding CTAGGCTC, the “PBM E-score of 8-mer” value was -0.126 ± 0.0024. Take ACCGCGTG: the “PBM E-score of 8-mer” value was determined as 0.281 ± 0.0042. Next, AAGACACA: 0.0932 ± 0.0087; GTCCCGAA: -0.214 ± 0.037. Next, CAGCATGA: -0.154 ± 0.015; AAATATCT: -0.032 ± 0.06. As for ACCGGGTA, the “PBM E-score of 8-mer” value was -0.164 ± 0.0056.

TCCTACAA: the “PBM E-score of 8-mer” value was -0.205 ± 0.071.

Turning to AGTCGCAG, the “PBM E-score of 8-mer” value came to 0.0537 ± 0.061. In the case of ACCAGGCT, the “PBM E-score of 8-mer” value was 0.0267 ± 0.043. Next, GGTTGGAA: -0.0526 ± 0.071; TGCCCACA: 0.0199 ± 0.1; GCCCCGTA: -0.0992 ± 0.0088. Regarding GGCCACTA, the “PBM E-score of 8-mer” value is -0.0216 ± 0.031. In the case of CAACCCAA, the “PBM E-score of 8-mer” value was -0.0957 ± 0.059. Next, ATGAGTAG: 0.0981 ± 0.045; CGAGACAG: -0.025 ± 0.054; ACGTTGTC: 0.138 ± 0.015. For GAAAGTTA, the “PBM E-score of 8-mer” value is -0.154 ± 0.04. Next, GCCCTAGA: -0.0999 ± 0.022; CATGAGCG: 0.0747 ± 0.043. Take GACCTATC: the “PBM E-score of 8-mer” value was -0.0644 ± 0.039. Take AATAAACT: the “PBM E-score of 8-mer” value is -0.204 ± 0.056.

As for AAGCACGC, the “PBM E-score of 8-mer” value is -0.038 ± 0.06.

Regarding GTCCTGCA, the “PBM E-score of 8-mer” value was -0.197 ± 0.032. As for ACATTTCG, the “PBM E-score of 8-mer” value turned out to be 0.0619 ± 0.047.

Consider ATGGTCCG, for which the “PBM E-score of 8-mer” value was -0.11 ± 0.029.

In the case of CCCCCCGA, the “PBM E-score of 8-mer” value is -0.258 ± 0.029.

Take CAAGAAAC: the “PBM E-score of 8-mer” value was -0.237 ± 0.016. Next, CGGTGTTA: 0.3373 ± 0.0021. For ATGCGGGC, the “PBM E-score of 8-mer” value is -0.236 ± 0.023. For the sequence ACATCAGT, the “PBM E-score of 8-mer” value worked out at 0.0637 ± 0.059. Take ATGCACGC: the “PBM E-score of 8-mer” value is -0.0415 ± 0.12. Next, CGTACAAC: -0.00318 ± 0.038; GATCGCCC: 0.0191 ± 0.023; ACTAGGTC: -0.14 ± 0.024. As to CGATTTAC, the “PBM E-score of 8-mer” value amounted to 0.195 ± 0.0048. Next, AATGTTTA: -0.0915 ± 0.04; ATTACCCA: -0.133 ± 0.04. In the case of TCTTATCA, the “PBM E-score of 8-mer” value is -0.0338 ± 0.0036. Next, CGACGGCC: -0.215 ± 0.012.

With ACGAGCCG, the “PBM E-score of 8-mer” value is -0.011 ± 0.0085. For the sequence ACAAGCTA, the “PBM E-score of 8-mer” value is -0.0512 ± 0.041. On to ACGGGGTG, for which the “PBM E-score of 8-mer” value is 0.316 ± 0.016. In the case of TGAATTAA, the “PBM E-score of 8-mer” value is -0.122 ± 0.026. Next, CCTTCACC: 0.14 ± 0.013. In the case of AGATTGGG, the “PBM E-score of 8-mer” value was -0.309 ± 0.03.

As for AAAACGCT, the “PBM E-score of 8-mer” value was -0.158 ± 0.036. For AGGAATTC, the “PBM E-score of 8-mer” value is -0.303 ± 0.097.

Turning to CAACTATA, the “PBM E-score of 8-mer” value is -0.105 ± 0.033. Turning to ACCGTCCA, the “PBM E-score of 8-mer” value was -0.108 ± 0.015. Take ATGCAGCA: the “PBM E-score of 8-mer” value was -0.145 ± 0.0088.

Turning to CAACGGTG, the “PBM E-score of 8-mer” value was found to be 0.0338 ± 0.00058. With CACCGCGA, the “PBM E-score of 8-mer” value was 0.202 ± 0.045. Turning to ACGTCAAT, the “PBM E-score of 8-mer” value came out at 0.0288 ± 0.029. Next, AAAATTTC: -0.186 ± 0.091; TGGGCTAA: -0.0697 ± 0.044; AACGGTCG: 0.084 ± 0.0082. CCTCGGCG: the “PBM E-score of 8-mer” value was -0.129 ± 0.13.

On to AGGAGCCC, for which the “PBM E-score of 8-mer” value was -0.23 ± 0.022. As for AAGTCGAC, the “PBM E-score of 8-mer” value was 0.133 ± 0.01.

For AAAACACA, the “PBM E-score of 8-mer” value amounted to 0.106 ± 0.081. On to AAAAAAAG, for which the “PBM E-score of 8-mer” value was -0.0758 ± 0.034. Next, CCTCAGTC: 0.00568 ± 0.037; GATGAAAA: 0.0525 ± 0.042.

The record behind these values is the supplement of paper PMC4166925.
